# Reference: PubChem BioAssay AID588591 (National Center for Advancing Translational Sciences (NCATS), 2011)
# Out of some 390,000 compounds screened, about 4,700 (1.2%) were called active. This list was built around the results that the source calls inconclusive (neither active nor inactive); the mix of calls is not that of the screen. Calls follow the shape of the dose curve; as a rule, active = well fitted inhibition curve with a large enough effect; inconclusive = small, poorly fitted or top-dose-only effect, or another doubt; inactive = no such curve, though single readings can be large or run the other way. Where the call is inconclusive, the potency comes from a doubtful curve fit.
# Target: DNA polymerase eta (Homo sapiens) (UniProt Q9Y253)
# Assay: qHTS for Inhibitors of Polymerase Eta
# Conditions: recombinant Pol eta, fluorescent DNA replication assay; series mostly up to 114 µM; activity change, negative = inhibition: at the top concentration
# How it was run: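 Pol eta (10 nM) was preincubated with compounds for 15 min at room temperature, after which fluorescent replication substrate (50 nM final) was added to start the reaction. Fluorescence was read kinetically at 0 and 10 min.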
# % is scaled to controls: 0 for no effect and ±100 for the full control effect; potency is read from the fitted curve at half-maximal effect; tags tell the direction and shape of the fitted curve.
# UniProt Q9Y253, sequence (Q9Y253 whole entry, looked up): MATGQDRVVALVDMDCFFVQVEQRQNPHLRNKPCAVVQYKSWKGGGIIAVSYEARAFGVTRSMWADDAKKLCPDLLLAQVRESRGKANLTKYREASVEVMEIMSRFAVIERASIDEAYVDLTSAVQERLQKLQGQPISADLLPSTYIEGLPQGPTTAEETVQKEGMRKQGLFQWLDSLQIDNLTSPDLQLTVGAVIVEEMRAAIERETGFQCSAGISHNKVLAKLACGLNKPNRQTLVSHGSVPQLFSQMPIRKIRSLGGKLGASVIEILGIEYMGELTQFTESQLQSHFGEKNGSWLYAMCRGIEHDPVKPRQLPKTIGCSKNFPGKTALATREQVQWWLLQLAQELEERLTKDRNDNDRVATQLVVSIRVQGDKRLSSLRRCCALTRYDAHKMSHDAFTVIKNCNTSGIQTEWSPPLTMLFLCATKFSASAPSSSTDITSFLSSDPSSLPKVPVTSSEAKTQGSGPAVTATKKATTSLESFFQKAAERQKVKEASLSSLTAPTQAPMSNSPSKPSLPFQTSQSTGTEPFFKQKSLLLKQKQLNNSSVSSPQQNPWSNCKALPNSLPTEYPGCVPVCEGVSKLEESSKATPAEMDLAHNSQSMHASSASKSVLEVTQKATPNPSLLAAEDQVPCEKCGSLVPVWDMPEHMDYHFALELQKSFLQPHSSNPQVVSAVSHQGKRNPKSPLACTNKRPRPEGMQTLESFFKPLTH
Compound,Potency,"activity change, negative = inhibition"
CCc1nc(Nc2ccc(OC)cc2OC)c2oc3ccccc3c2n1,"inconclusive: 56.2 µM [inhibitor, partial curve, poor fit]",–
CCC1=NN2C(=N)/C(=C\c3ccc(OCCOc4ccc(NC(C)=O)cc4)cc3)C(=O)N=C2S1,"inconclusive: 56.2 µM [inhibitor, partial curve, poor fit]",–
O=C1CN(C(=O)COC(=O)c2ccc([N+](=O)[O-])o2)c2ccccc2N1,"inconclusive: 56.2 µM [inhibitor, partial curve, poor fit]",–
COc1ccc(Sc2ccc(/C=C3\C(=O)NN(c4ccccc4)C3=O)o2)cc1,active: 25.1 µM,–
Cc1ccc(-c2nc3cc(NC(=O)Cc4ccc(Cl)cc4)ccc3o2)cc1,"inconclusive: 89.1 µM [inhibitor, partial curve]",–
C[N+](C)(CC#Cc1ccccc1)CC(=O)c1ccc(Cl)cc1,"inconclusive: 3.55 µM [inhibitor, partial curve, poor fit]",–
C=CCn1c(=O)[nH]c2cc(C(=O)N3CC=C(c4ccccc4)CC3)ccc2c1=O,"inconclusive: 56.2 µM [inhibitor, partial curve, poor fit]",–
COc1ccc2oc(C(=O)NCC(c3ccco3)N(C)C)c(C)c2c1 (stereo not given),"inconclusive: 31.6 µM [inhibitor, partial curve, poor fit]",–
Cc1nnc(NC(=O)c2cccc(S(=O)(=O)N3CCOCC3)c2)s1,"inconclusive: 70.8 µM [inhibitor, partial curve, poor fit]",–
O=C(COc1ccc(-c2ccccc2)cc1)N1CCN(C(=O)c2cccnc2)CC1,"inconclusive: 31.6 µM [inhibitor, single point]",–
O=C(N=Nc1c(O)[nH]c2ccccc12)Nc1ccccc1,"inconclusive: 17.8 µM [inhibitor, full curve, poor fit]",–
Cc1ccc(Cn2cc(CCC(=O)NCC(C)c3ccccc3)c3ccccc32)cc1 (stereo not given),"inconclusive: 79.4 µM [inhibitor, partial curve, poor fit]",–
COc1ccc(N2CCN(C(=O)Cc3ccc(S(=O)(=O)N4CCOCC4)s3)CC2)cc1,active: 20 µM,–
O=C(CCn1c(=S)oc2ccccc21)Nc1ccccc1Br,"inconclusive: 39.8 µM [inhibitor, partial curve, poor fit]",–
Cc1ccccc1NC(=O)CN1C(=O)S/C(=C\c2ccc(-c3cccc(C(=O)O)c3C)o2)C1=O,"inconclusive: 15.8 µM [inhibitor, full curve, poor fit]",–
O=C1NC(=S)S/C1=C\c1ccc(SCc2ccccc2)o1,active: 17.8 µM,–
O=C(Nc1ccc(-c2nc3ncccc3o2)cc1)c1ccc(Br)o1,"inconclusive: 15.8 µM [inhibitor, partial curve, poor fit]",–
CC(C)C1Nc2ccc(C(=O)O)cc2C2C=CCC21 (stereo not given),active: 20 µM,–
CCC(C)Sc1ccc([C@@H]2[C@H]3C(=O)N(CC)C(=O)[C@H]3[C@]3(C(=O)OC)CCCCN23)cc1 (stereo not given in full),"inconclusive: 25.1 µM [inhibitor, partial curve, poor fit]",–
COc1ccc(N=C2SC(C(N)=O)CC(=O)N2Cc2ccc3c(c2)OCO3)cc1 (stereo not given),active: 28.2 µM,–
COc1cc2c(C#CCCO)c(-c3ccc(C#N)cc3)oc(=O)c2cc1OC,"inconclusive: 50.1 µM [inhibitor, partial curve]",–
Cc1ccc(NC(=O)CCCCCC2NC(=O)NC2C)cc1 (stereo not given),–,inactive: 0.647%

Compound,Potency,"activity change, negative = inhibition"
O=c1cc(-c2ccc(O)c(O)c2)oc2ccc3ccccc3c12,"inconclusive: 3.16 µM [inhibitor, full curve]",–
Cc1ccc(N2C(=O)N3[C@H](c4ccc(Cl)cc4)[C@@H]4C(=O)N(C5CCCCC5)C(=O)[C@@H]4[C@]3(Cc3ccccc3)C2=O)cc1,–,inactive: -15.2%
O=C(/C=C/c1ccco1)N1CCN(c2ncccn2)CC1,"inconclusive: 22.4 µM [inhibitor, partial curve, poor fit]",–
COc1cc(OC)c(C=CC(=O)c2ccccc2O)c(OC)c1,–,inactive: -21.4%
O=C(N/N=C/c1ccc([N+](=O)[O-])o1)c1cc2ccccc2o1,"inconclusive: 20 µM [inhibitor, full curve]",–
CCOC(=O)C(=NC(C)CC)NNc1cccc(C(F)(F)F)c1 (stereo not given),"inconclusive: 50.1 µM [inhibitor, partial curve, poor fit]",–
O=C(NCc1ccco1)c1ccccc1F,active: 22.4 µM,–
CCOC(=O)N1CCN(CC(O)COCC2=CCC3CC2C3(C)C)CC1 (stereo not given),"inconclusive: 89.1 µM [inhibitor, partial curve, poor fit]",–
CCOc1ccc(C(=O)NC2C(=O)N3C(C(=O)O)=C(COC(C)=O)CSC23)cc1OCC (stereo not given),active: 20 µM,–
Cc1ccccc1Cn1nc(C)c(NC(=O)c2cc3nc(-c4ccco4)cc(C(F)(F)F)n3n2)c1C,"inconclusive: 39.8 µM [inhibitor, partial curve, poor fit]",–
Cc1ccn2c(=O)nc(SCC(=O)Nc3cc(C)on3)nc2c1,"inconclusive: 25.1 µM [inhibitor, single point]",–
Cc1ncc(CO)c2c1Oc1nc(-c3ccccc3)nc(SCC(=O)N3CCCCC3)c1C2,"inconclusive: 31.6 µM [inhibitor, full curve]",–
Cc1ccnc(NS(=O)(=O)c2ccc(N3C(=O)c4c(Cl)c(Cl)c(Cl)c(Cl)c4C3=O)cc2)n1,active: 79.4 µM,–
O=C(Cn1c(=O)oc2cc(S(=O)(=O)N3CCCC3)ccc21)NCc1ccc(Cl)cc1,–,inactive: -18.9%
O=C(CN1CCOCC1)Nc1ccc2c(c1)CCC2,"inconclusive: 89.1 µM [inhibitor, partial curve, poor fit]",–
O=C(Cn1c(=O)n(CC(=O)NCc2ccccc2)c2ccccc21)NCc1ccccc1,"inconclusive: 25.1 µM [inhibitor, single point]",–
O=C(COC(=O)/C=C/c1ccc(F)cc1)Nc1nnc(-c2ccccc2)o1,"inconclusive: 89.1 µM [inhibitor, partial curve, poor fit]",–
CCCCn1c(NC(=O)c2ccccc2Cl)c(C#N)c2nc3ccccc3nc21,active: 20 µM,–
C(#Cc1ccccc1)C[N+]1(CC#Cc2ccccc2)CCCC1,–,inactive: 0.78%
N#CC1(NC(=O)COC(=O)/C=C/c2ccc3ccccc3n2)CCCCC1,"inconclusive: 39.8 µM [inhibitor, partial curve, poor fit]",–
CCOC(=O)c1cccc(NC(=O)c2cc3cc4cc(OC)ccc4nc3s2)c1,"inconclusive: 89.1 µM [inhibitor, single point]",–
COc1cc(/C=C/c2nc3ccccc3c(=O)[nH]2)ccc1O,"inconclusive: 35.5 µM [inhibitor, partial curve, poor fit]",–

Compound,Potency,"activity change, negative = inhibition"
CC1=CC2=NC(=O)/C(=C\c3cccn3CCOc3cccc(C)c3)C(=N)N2O1,"inconclusive: 79.4 µM [inhibitor, partial curve, poor fit]",–
O=C(O)CC1(c2ccccc2)C(=O)c2ccccc2C1=O,–,inactive: -15.9%
CC(C)Cc1nc2oc3c(NCc4cccnc4)ncnc3c2c2c1CCC2,"inconclusive: 28.2 µM [inhibitor, partial curve, poor fit]",–
Cc1nc(C)c(C(=O)Nc2ccc(C)c(F)c2)o1,"inconclusive: 79.4 µM [inhibitor, single point]",–
N#Cc1cc(-c2ccccc2)nnc1Oc1ccccc1,"inconclusive: 31.6 µM [inhibitor, single point]",–
c1coc(-c2nnc3sc(Cc4cccs4)nn23)c1,active: 28.2 µM,–
C/C=C/c1ccc(OCC(=O)OCC)c(OC)c1,–,inactive: -6.36%
Cc1ccc(-n2nnnc2SCC(=O)NNC(=O)c2ccc([N+](=O)[O-])cc2)cc1,"inconclusive: 56.2 µM [inhibitor, partial curve, poor fit]",–
CC1=NOC(=O)/C1=C\c1ccc(-c2ccc(Cl)c(C(=O)O)c2)o1,active: 4.47 µM,–
CCN(CC)c1ccc(NC(=O)C2CCN(S(=O)(=O)c3ccc4c(c3)oc(=O)n4C)CC2)c(C)c1,–,inactive: 3.43%
Cc1cccc(-n2nc3c(c2NC(=O)c2ccco2)CSC3)c1C,active: 12.6 µM,–
CC1CC(C)CN(C(=O)CSCC(=O)O)C1 (stereo not given),"inconclusive: 89.1 µM [inhibitor, partial curve, poor fit]",–
Clc1ccc(-c2ccc(-c3nn4c(-c5ccco5)nnc4s3)o2)cc1,active: 79.4 µM,–
CC1CCCC(C(=O)O)N1C(=O)CCSSCCC(=O)N1C(C)CCCC1C(=O)O (stereo not given),"inconclusive: 11.2 µM [inhibitor, partial curve, poor fit]",–
CCOC(=O)c1cc(-c2ccccc2)n(CCC(=O)NCCc2ccc(C)cc2)c1C,–,inactive: -3.06%
CC(/C=N\NC(=O)Cn1c(C)nc2ccccc21)=C\c1ccccc1,"inconclusive: 39.8 µM [inhibitor, full curve, poor fit]",–
Cc1ccnc(NS(=O)(=O)c2ccc(NC(=O)c3ccc([N+](=O)[O-])s3)cc2)n1,"inconclusive: 56.2 µM [inhibitor, partial curve, poor fit]",–
Cc1ccc(C(=O)NCC(c2ccco2)S(=O)(=O)c2ccccc2)cc1C (stereo not given),–,inactive: -22.8%
COc1cc2c(=O)c(S(=O)(=O)c3ccc(C(C)C)cc3)cn(Cc3ccccc3C)c2cc1OC,–,inactive: -6.1%
CCOC(=O)c1c(C)c(-c2ccccc2)n(CC(=O)NCc2ccccc2)c1C,"inconclusive: 79.4 µM [inhibitor, partial curve, poor fit]",–
CCN(CC)c1ccc(-c2nn3c(-c4cccnc4)nnc3s2)cc1,"inconclusive: 14.1 µM [inhibitor, partial curve, poor fit]",–
